Measurements taken from PubChem BioAssay AID360 (National Center for Advancing Translational Sciences (NCATS), 2006).
Out of some 48,000 compounds screened, about 550 (1.1%) were called active. Inconclusive results (about 4%) are left out. Rule as the data show it: active = potency below about 15 µM; inconclusive = mostly about 16 µM to 33 µM; inactive = weaker than that. Some of the results follow.

molecular target: Lysosomal acid glucosylceramidase (Homo sapiens) (UniProt P04062); assay: Glucocerebrosidase; conditions: purified enzyme, resorufin glucoside fluorescence (screen aimed at inhibitors), 20 min;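 also: the screen sought inhibitors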
Outline: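 Normal human glucocerebrosidase (0.2 nM final) was assayed with resorufin β-D-glucopyranoside (30 uM final) in 50mM citric acid/KH2PO4, 10mM sodium taurocholate, 0.01% tween-20, pH 5.9. Compounds were titrated; fluorescence (Ex 548, Em 600) read after 20 min at RT.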
Potency is read from the fitted curve at half-maximal effect.

UniProt P04062, sequence (P04062 whole entry, looked up): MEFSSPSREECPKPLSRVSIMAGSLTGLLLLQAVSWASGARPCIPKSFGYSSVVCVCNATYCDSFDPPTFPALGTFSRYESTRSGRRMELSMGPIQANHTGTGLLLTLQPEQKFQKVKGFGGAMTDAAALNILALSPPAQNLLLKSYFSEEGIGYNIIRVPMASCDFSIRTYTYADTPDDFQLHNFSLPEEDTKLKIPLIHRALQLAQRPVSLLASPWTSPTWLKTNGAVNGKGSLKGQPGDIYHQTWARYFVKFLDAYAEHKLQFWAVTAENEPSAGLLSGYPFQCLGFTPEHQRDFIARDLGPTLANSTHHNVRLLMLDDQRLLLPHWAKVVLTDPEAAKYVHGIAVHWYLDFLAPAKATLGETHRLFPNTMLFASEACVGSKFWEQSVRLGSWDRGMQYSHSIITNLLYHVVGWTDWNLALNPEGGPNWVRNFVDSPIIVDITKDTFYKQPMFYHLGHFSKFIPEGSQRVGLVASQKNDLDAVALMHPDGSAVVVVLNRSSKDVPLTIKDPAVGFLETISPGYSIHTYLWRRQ

Potency, active:
O=c1[nH]c(N2CCc3ccccc3C2)nc2c1CCCC2 4.56 µM
c1coc(CNc2nc(N3CCCCC3)nc3ccccc23)c1 9.65 µM

Potency, inactive:
COc1ccccc1NC(=O)N(Cc1ccco1)Cc1cc2c(C)ccc(C)c2[nH]c1=O > 76.9 µM
CCN(CC)c1ccc(NC(=O)c2cccc(OC)c2)c(C)c1 > 76.9 µM
O=C(NC1CCCc2ccccc21)c1cccnc1 (stereo unspecified) > 76.9 µM
CCCC1(CCC)NC(=O)N(CC(=O)Nc2cccc(OC)c2)C1=O > 76.9 µM
Cc1cc(C)n2nc(SCc3cc(=O)n4c(C)cccc4n3)nc2n1 > 76.9 µM
COc1ccc(-c2cc(C(F)(F)F)nc(N3CCOCC3)n2)cc1OC > 76.9 µM
CC1(C(=O)N(c2ccccc2)C(C(=O)NC2CCCC2)c2ccccn2)CC(=O)N=C2C=CC=CN21 (stereo unspecified) > 76.9 µM
C=C(C)CSc1nnc(-c2ccc(OC)c(OC)c2)n1N > 76.9 µM
COc1cc2cc(C(=O)O)n(C)c2c(OC)c1OC > 76.9 µM
CCOC(=O)N1CCC(NC(=O)CCc2nc(-c3ccccc3F)no2)CC1 > 76.9 µM
Cc1ccccc1Cn1c(=O)n(CCCC(=O)NCc2ccco2)c(=O)c2ccccc21 > 76.9 µM
COc1ccc(NC(=O)CSc2ncn(-c3ccccc3)n2)cc1Cl > 76.9 µM
CCNC(=O)CC1C(=O)N(c2ccc(OC)cc2)C(=O)N1Cc1ccc(OC)cc1 (stereo unspecified) > 76.9 µM
CCOC(=O)C1C(=O)Nc2nc(C)nn2C1c1ccccc1 (stereo unspecified) > 76.9 µM
Cn1c(=O)c2c(nc(SCCN3CCOCC3)n2Cc2ccccc2)n(C)c1=O
CCCn1c(N)c(C(=O)CSc2nnc(Cc3ccccc3)o2)c(=O)n(C)c1=O > 76.9 µM
CCCNC(=O)N1CCN(S(=O)(=O)c2ccc(C)cc2)CC1 > 76.9 µM
CCCCc1noc2c1/C(=N\O)CC(c1ccccc1)C2 (stereo unspecified) > 76.9 µM
Cc1cccc(-n2c(N)cc(=O)nc2SCC(=O)Nc2cc(C)on2)c1 > 76.9 µM
CCOc1ncccc1C(=O)OCc1cc(=O)n2c(n1)sc1ccccc12 > 76.9 µM
COc1ccc(-n2ccnc2SCC(=O)Nc2ccc(OC)cc2OC)cc1 > 76.9 µM
O=C(CSc1nc(-c2cccs2)cc(C(F)(F)F)n1)NCCCn1ccnc1 > 76.9 µM
COCCn1c(C)cc(C(=O)COC(=O)C23CC4CC(CC(O)(C4)C2)C3)c1C > 76.9 µM
C=CCN=c1sc(C(=O)OC)cc(=O)n1CC=C > 76.9 µM
COCCCN1C(=O)C(=O)/C(=C(/O)c2ccc(OC)cc2C)C1c1cccnc1 (stereo unspecified) > 76.9 µM
CCN(CC)CCn1c(SCC(=O)NCc2ccco2)nc2c(sc3ccccc32)c1=O > 76.9 µM
CS(=O)(=O)N(CC(=O)Nc1cccnc1)c1ccc2c(c1)OCCO2 > 76.9 µM
CC(NC(=O)c1ccco1)C(=O)Nc1nc(-c2ccccn2)cs1 (stereo unspecified) > 76.9 µM
Cn1c(=O)n(CCc2ccccc2)c(=O)c2c1nc1n2CCN1c1ccccc1 > 76.9 µM
COc1cc(C(=O)NCC(c2cccnc2)N2CCN(C)CC2)cc(OC)c1OC (stereo unspecified) > 76.9 µM
N#Cc1cccc(NC(=O)N2CCC(c3nc4c(nnn4Cc4cccc(Cl)c4)c(=O)[nH]3)CC2)c1
CC(=O)c1nnn(-c2nc(N3CCCC3)nc(N(c3ccccc3)c3ccccc3)n2)c1C > 76.9 µM
O=c1nc(NCc2ccco2)sc2ncccc12 > 76.9 µM
COc1ccc(-n2c(=O)c3ccccc3n(CC(=O)NC3CCCCC3)c2=O)c(OC)c1 > 76.9 µM
CCCn1c(C(O)c2cc(OC)ccc2OC)nc2ccccc21 (stereo unspecified) > 76.9 µM
Cc1ccc(OCC(=O)Nc2ccc3c(c2)nc(CCN2CCOCC2)n3C)cc1 > 76.9 µM
Cc1ccc(C(=O)Nc2c3c(nn2C(C)(C)C)CS(=O)(=O)C3)cc1C > 76.9 µM
COc1ccc(NC(=O)CSC2=NC(=O)CC(C)=N2)cc1 > 76.9 µM
CCOc1ccc(Cl)cc1CSc1n[nH]c(CC)n1 > 76.9 µM
COCC(=O)NC(c1ccccc1)c1ccccc1 > 76.9 µM
Cc1cccc(CC2CC(=O)N(c3ccccc3)C2=O)c1 (stereo unspecified) > 76.9 µM
COC(=O)c1cccc(NC(=O)Cc2coc3cc(OC)ccc23)c1 > 76.9 µM
O=C(CCCCCn1c(SCC(=O)c2ccccc2)nc2ccccc2c1=O)NCc1ccco1 > 76.9 µM
CN(C)C(C(=O)NC1CCCCC1)c1ccc(Cl)cc1 (stereo unspecified) > 76.9 µM
CC(C)n1c(N2CCN(CC(=O)Nc3ccc4c(c3)OCCO4)CC2)nc2ccccc21 > 76.9 µM
COC(=O)c1sccc1NC(=O)CN1CCN(c2ccc(F)cc2)CC1 > 76.9 µM
CCOC(=O)C1=C(C)N(CCO)C(=O)NC1c1ccccc1 (stereo unspecified) > 76.9 µM
COc1ccccc1NS(=O)(=O)c1ccc(NC(=O)c2nc3ncccn3n2)cc1 > 76.9 µM
COc1ccccc1N1CCN(CC(=O)Nc2c(C)n[nH]c2C)CC1 > 76.9 µM
CCN(CC)CCN1C(=O)C(=O)/C(=C(/O)c2ccncc2)C1c1ccccc1 (stereo unspecified) > 76.9 µM
CCC(=O)c1ccc(OC(=O)c2ccc(Br)o2)cc1 > 76.9 µM
CC(NC(=O)c1ccc(S(=O)(=O)N(C)C)cc1)c1ccccc1 (stereo unspecified) > 76.9 µM
Cc1ccc(N2CC(C(=O)N3CCc4ccccc43)CC2=O)cc1 (stereo unspecified) > 76.9 µM
Cc1cc(NC(=O)c2noc3c2CCCC3)no1 > 76.9 µM
Cc1ccc(-c2nc(CSCC(=O)N3CCCC3)c(C)o2)cc1 > 76.9 µM
Cc1ccc(OCCCC(=O)N2CCOCC2)c(C)c1 > 76.9 µM
Cc1sc2nc(CN(CCc3ccccc3)C(=O)c3ccco3)[nH]c(=O)c2c1C > 76.9 µM
CCOC(=O)C1=C(N)OC2=C(C(=O)CCC2)C1c1ccco1 (stereo unspecified) > 76.9 µM
O=C(NCc1ccccn1)c1ccc(Cn2cc(Br)cn2)o1 > 76.9 µM
c1ccc(CSc2ncccn2)cc1 > 76.9 µM
O=C1c2cccnc2C(=O)N1c1cccc(-c2nc3ccccc3o2)c1 > 76.9 µM
Cc1cccc(C)c1NC(=O)CNc1ccccc1 > 76.9 µM
COc1cc2c3c(c1)C1(C(=O)N3C(C)(C)C=C2C)C(C#N)=C(N)Oc2cc(C)oc(=O)c21 (stereo unspecified) > 76.9 µM
O=C(Nc1cccnc1)c1scc2c1OCCO2 > 76.9 µM
CS(=O)(=O)N(CC(=O)N1CCCCC1)c1ccc2c(c1)OCO2 > 76.9 µM
COc1ccccc1-c1nnc(SCC(=O)Nc2c(Cl)cccc2Cl)o1 > 76.9 µM
CC(=O)Nc1c2c(nn1-c1ccc(C)cc1C)CSC2 > 76.9 µM
C=CCOc1ccc(NC(=O)C2CC(=O)N(C(C)C)C2)cc1 (stereo unspecified) > 76.9 µM
CC(=O)c1cccc(NC(=O)N2CCC(c3nnc(SCC(N)=O)n3C)CC2)c1 > 76.9 µM
COc1ccccc1N1CCN(C(=O)c2nn(-c3ccccc3OC)c(=O)c3ccccc23)CC1 > 76.9 µM
CCCCN(CC)Cc1ccc(CNC(=O)Nc2ccc(OC)cc2OC)o1 > 76.9 µM
COC(=O)CN(c1nc(C)cc(OC)n1)S(=O)(=O)c1ccc(C)cc1 > 76.9 µM
O=C1CSC2(CCCCC2)N1CCO > 76.9 µM
CC(C)OCCCNC(=O)c1ccc(NC(=O)C2CCCO2)cc1 (stereo unspecified) > 76.9 µM
Cc1ccccc1CSCCNC(=O)CN(c1ccc2c(c1)OCO2)S(C)(=O)=O > 76.9 µM
Cc1ccc(C(=O)CSc2nnc(-c3ccccc3N)n2C)cc1 > 76.9 µM
CN1CCc2c(sc(/N=C/c3cccs3)c2C(N)=O)C1 > 76.9 µM
COCCn1c(-c2ccccc2)nc2oc3ccccc3c(=O)c2c1=O > 76.9 µM
COCC(=O)Nc1ccc(C)c(Cl)c1 > 76.9 µM
CCn1c2ccccc2c2cc(C3C(C#N)=C(N)Oc4n[nH]c(COC)c43)ccc21 (stereo unspecified) > 76.9 µM
N#Cc1c2n(c(=S)n(-c3ccccn3)c1=O)CCCCC2 > 76.9 µM
O=C(O)CCC(=O)N1CCc2cc(S(=O)(=O)N3CCCCC3)ccc21 > 76.9 µM
Cc1onc(-c2ccccc2)c1C(=O)NC(C)C1CCCO1 (stereo unspecified) > 76.9 µM
O=C(Nc1ccccc1N1CCN(C(=O)c2ccccc2)CC1)c1cc2ccccc2o1 > 76.9 µM
CC1CCC(NC(=O)C2CCN(C(=O)NC3CCCCC3)CC2)CC1 (stereo unspecified) > 76.9 µM
Cc1nn(-c2cc(N3CCCCC3)ccc2N)c(=O)c2ccccc12 > 76.9 µM
CCSc1ccccc1C(=O)N1CCN(c2ccccc2F)CC1 > 76.9 µM
O=C(O)c1cccnc1-c1ncccc1C(=O)O
CCC(=O)N(Cc1ccco1)c1nc(-c2cc(OC)ccc2OC)cs1 > 76.9 µM
